Over roughly 110,000 compounds, “z-score” has its median near -0.1; the highest 2% begin near 2. The list shows a part of the results.
Molecular target: Metabotropic glutamate receptor 8 (Rattus norvegicus) (UniProt P70579)
Assay: rat mGluR8 modulators via GIRK flux, primary screen, cell-based, thallium flux, HTS (AID 488969)
Conditions: HEK293 rat mGluR8, GIRK (G protein-gated inwardly rectifying potassium channel) thallium flux, FluoZin2; at 10 µM; stronger effect = higher value; submaximal glutamate (EC20) added with thallium

Chain of UniProt P70579 (P70579 whole entry, looked up): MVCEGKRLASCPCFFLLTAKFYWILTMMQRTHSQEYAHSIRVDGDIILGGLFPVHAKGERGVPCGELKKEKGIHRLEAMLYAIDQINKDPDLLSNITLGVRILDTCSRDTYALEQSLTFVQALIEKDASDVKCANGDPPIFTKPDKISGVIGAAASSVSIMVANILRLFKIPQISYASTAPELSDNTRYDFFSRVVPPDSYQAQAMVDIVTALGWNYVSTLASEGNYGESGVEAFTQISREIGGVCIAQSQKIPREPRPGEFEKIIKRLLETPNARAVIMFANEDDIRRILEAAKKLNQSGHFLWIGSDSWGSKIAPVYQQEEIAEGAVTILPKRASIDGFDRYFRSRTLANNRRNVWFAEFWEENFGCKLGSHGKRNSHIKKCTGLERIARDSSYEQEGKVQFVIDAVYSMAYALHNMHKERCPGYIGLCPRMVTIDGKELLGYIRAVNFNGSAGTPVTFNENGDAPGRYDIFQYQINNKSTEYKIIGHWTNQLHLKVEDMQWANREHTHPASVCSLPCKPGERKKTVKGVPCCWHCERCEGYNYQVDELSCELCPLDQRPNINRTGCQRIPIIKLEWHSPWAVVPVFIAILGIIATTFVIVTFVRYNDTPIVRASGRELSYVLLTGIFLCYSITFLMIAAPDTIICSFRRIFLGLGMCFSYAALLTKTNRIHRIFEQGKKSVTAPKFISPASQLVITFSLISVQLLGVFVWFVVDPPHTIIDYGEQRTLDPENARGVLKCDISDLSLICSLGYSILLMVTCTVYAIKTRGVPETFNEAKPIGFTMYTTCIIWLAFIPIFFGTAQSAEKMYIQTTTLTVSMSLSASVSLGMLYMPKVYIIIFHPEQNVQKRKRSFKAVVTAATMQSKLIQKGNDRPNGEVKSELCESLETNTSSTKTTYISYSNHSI

| Structure (SMILES) | z-score |
| --- | --- |
| COC(=O)C1=C(C)N=C2SC(C#N)=C(N)N2C1c1ccc(OC)cc1 (centres undefined) | -0.21 |
| COc1ccc(S(=O)(=O)N2CCC(N3CCN(c4ccccc4)CC3)CC2)cc1 | -0.0952 |
| COc1cc(NC(=O)CSc2nc3ccccc3c(=O)n2C)ccc1NC(=O)c1ccco1 | -0.617 |
| CC(C)(C)n1nc2c(c1NC(=O)CCCc1ccccc1)CS(=O)C2 (centres undefined) | -0.193 |
| O=C1CC(c2ccccc2)=Nc2ccccc2N1 | -0.0288 |
| COc1ccc(C(=O)COc2nc(C)cc(C)c2C#N)cc1 | -0.635 |
| C=CCNC(=O)/C(=C\c1ccc2c(c1)OCO2)NC(=O)c1ccc(Br)cc1 | -0.116 |
| CC(C)C[C@H](NC(=O)NCc1ccccc1Cl)C(=O)O | 0.269 |
| COc1cccc(CNc2ncnc3cc(OC)c(OC)cc23)c1 | -0.0442 |
| COC(=O)c1ccccc1NC(=O)COC(=O)c1ccco1 | -0.773 |
| CC(C)CNC(=S)NC1CC2CCCC(C1)N2Cc1cccs1 (centres undefined) | -0.473 |
| CC(=O)C1=C(O)C(=O)N(Cc2cccnc2)C1c1ccc(Cl)cc1 (centres undefined) | -0.551 |
| CCOC(=O)N1CCC(NC(=O)c2cn(-c3ccc(OC)cc3)c(=O)c3ccccc23)CC1 | 0.552 |
| CC(C)(C)c1cc(C(=O)N2CCN(c3ncccn3)CC2)ccn1 | -0.275 |
| CCOC(=O)C1CCN(C(=O)c2cn(CCOC)c(=O)c3c2c2ccccc2n3C)CC1 | 0.278 |
| O=c1oc2ccccc2c(O)c1C=NCc1ccccn1 | 0.0197 |
| Cc1cc(C)c(C(=O)/C=C/c2cccc3ccccc23)c(=O)[nH]1 | -0.311 |
| CCCSc1nc(-c2ccccc2)cc(C(F)(F)F)c1C#N | -0.221 |
| O=C(CNC(=O)C12CC3CC(CC(C3)C1)C2)NC1=NCCS1 | -1.01 |
| COc1ccccc1NS(=O)(=O)c1cc(NC(=O)Cn2cnc3c2c(=O)n(C)c(=O)n3C)ccc1C | -0.578 |
| Cc1ccccc1N1CCN(C(=O)CCN2C(=O)c3ccccc3C2=O)CC1 | -0.36 |
| COc1ccc(C(C(O)C(=O)c2c[nH]c3ccccc23)N2CCN(c3ccc(OC)cc3)CC2)cc1 (centres undefined) | 0.0102 |
| COc1ccc2c(c1)C(=O)c1ccccc1CO2 | -0.252 |
| Cc1c(NC(=O)C2CC(c3c(F)cccc3Cl)=NO2)c(=O)n(-c2ccccc2)n1C (centres undefined) | -0.349 |
| c1ccc(Cn2nnnc2C(c2ccccc2)N2CCN(c3nc4ccccc4s3)CC2)cc1 (centres undefined) | -0.038 |
| CCOC(=O)c1nn(-c2ccc(OCC)cc2)c2nc(CC(C)C)c(C#N)c(=O)n12 | -0.166 |
| O=C(NCc1ccccc1)NC1(C(=O)Nc2ccc3c(c2)OCCO3)CCCCC1 | -0.126 |
| O=C(/C=C/c1ccco1)Nc1sc2c(c1C(=O)O)CCC2 | -0.219 |
| C=CCn1c(SCc2nc3sc4c(c3c(=O)[nH]2)CCCC4)nc2ccccc2c1=O | 0.059 |
